Measured values reported in the supplement of paper PMC8728848.
Some of the results follow.

What was measured:
Test in all cases: glycan array binding signal (z-score within array); higher = stronger binding
Conditions in all cases: glycan notation: IUPAC condensed, linker removed; mutation: R85A
[1] = biological target: Fuc(a1-3)[Gal3S(b1-4)]GlcNAc
Method in brief: (§1)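 Glycan array data came from 3228 arrays in the Consortium for Functional Glycomics database, and only arrays with an available protein sequence were kept. Glycan names were put into IUPAC-condensed notation, and columns mapping to the same glycan were averaged. The binding signal is a within-array Z-score, averaged across arrays of one protein sequence run at different concentrations or buffers and across linkers. A negative Z-score can be read as non-binding.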

[2] = biological target: Fuc(a1-3)[Gal3S(b1-4)]GlcNAc6S
Method in brief: as §1

[3] = biological target: Fuc(a1-3)[GalNAc(b1-4)]GlcNAc
Method in brief: as §1

Fuc(a1-4)GlcNAc = biological target: Fuc(a1-4)GlcNAc
Method in brief: as §1

Fuc(b1-3)GlcNAc = biological target: Fuc(b1-3)GlcNAc
Method in brief: as §1

Gal(a1-2)Gal = biological target: Gal(a1-2)Gal
Method in brief: as §1

Gal(a1-3)Gal = biological target: Gal(a1-3)Gal
Method in brief: as §1

Gal(a1-3)Gal(b1-3)GlcNAc = biological target: Gal(a1-3)Gal(b1-3)GlcNAc
Method in brief: as §1

[4] = biological target: Gal(a1-3)Gal(b1-3)GlcNAc(b1-2)Man(a1-3)[Gal(a1-3)Gal(b1-3)GlcNAc(b1-2)Man(a1-6)]Man(b1-4)GlcNAc(b1-4)GlcNAc
Method in brief: as §1

[5] = biological target: Gal(a1-3)Gal(b1-3)[Fuc(a1-4)]GlcNAc(b1-2)Man(a1-3)[Gal(a1-3)Gal(b1-3)[Fuc(a1-4)]GlcNAc(b1-2)Man(a1-6)]Man(b1-4)GlcNAc(b1-4)GlcNAc
Method in brief: as §1

Gal(a1-3)Gal(b1-4)Glc = biological target: Gal(a1-3)Gal(b1-4)Glc
Method in brief: as §1

Gal(a1-3)Gal(b1-4)GlcNAc = biological target: Gal(a1-3)Gal(b1-4)GlcNAc
Method in brief: as §1

[6] = biological target: Gal(a1-3)Gal(b1-4)GlcNAc(b1-3)GalNAc
Method in brief: as §1

[7] = biological target: Gal(a1-3)Gal(b1-4)[Fuc(a1-3)]GlcNAc
Method in brief: as §1

[8] = biological target: Gal(a1-3)Gal(b1-4)[Fuc(a1-3)]GlcNAc(b1-2)Man(a1-3)[Gal(a1-3)Gal(b1-4)[Fuc(a1-3)]GlcNAc(b1-2)Man(a1-6)]Man(b1-4)GlcNAc(b1-4)GlcNAc
Method in brief: as §1

Gal(a1-3)GalNAc = biological target: Gal(a1-3)GalNAc
Method in brief: as §1

[9] = biological target: Gal(a1-3)[Gal(a1-4)]Gal(b1-4)GlcNAc
Method in brief: as §1

[10] = biological target: Gal(a1-4)Gal(b1-3)GlcNAc(b1-2)Man(a1-3)[Gal(a1-4)Gal(b1-3)GlcNAc(b1-2)Man(a1-6)]Man(b1-4)GlcNAc(b1-4)GlcNAc
Method in brief: as §1

Gal(a1-4)Gal(b1-4)Glc = biological target: Gal(a1-4)Gal(b1-4)Glc
Method in brief: as §1

Gal(a1-4)Gal(b1-4)GlcNAc = biological target: Gal(a1-4)Gal(b1-4)GlcNAc
Method in brief: as §1

[11] = biological target: Gal(a1-4)Gal(b1-4)GlcNAc(b1-2)Man(a1-3)[Gal(a1-4)Gal(b1-4)GlcNAc(b1-2)Man(a1-6)]Man(b1-4)GlcNAc(b1-4)GlcNAc
Method in brief: as §1

[12] = biological target: Gal(a1-4)Gal(b1-4)GlcNAc(b1-3)Gal(b1-4)Glc
Method in brief: as §1

Gal(a1-4)GlcNAc = biological target: Gal(a1-4)GlcNAc
Method in brief: as §1

Gal(a1-6)Glc = biological target: Gal(a1-6)Glc
Method in brief: as §1

Gal(b1-2)Gal = biological target: Gal(b1-2)Gal
Method in brief: as §1

Gal(b1-3)Gal = biological target: Gal(b1-3)Gal
Method in brief: as §1

Gal(b1-3)Gal(b1-4)GlcNAc = biological target: Gal(b1-3)Gal(b1-4)GlcNAc
Method in brief: as §1

[13] = biological target: Gal(b1-3)Gal(b1-4)GlcNAc(b1-2)Man(a1-3)[Gal(b1-3)Gal(b1-4)GlcNAc(b1-2)Man(a1-6)]Man(b1-4)GlcNAc(b1-4)GlcNAc
Method in brief: as §1

Gal(b1-3)GalNAc = biological target: Gal(b1-3)GalNAc
Method in brief: as §1

[14] = biological target: Gal(b1-3)GalNAc(a1-3)[Fuc(a1-2)]Gal(b1-4)Glc
Method in brief: as §1

[15] = biological target: Gal(b1-3)GalNAc(a1-3)[Fuc(a1-2)]Gal(b1-4)GlcNAc
Method in brief: as §1

[16] = biological target: Gal(b1-3)GalNAc(b1-3)Gal(a1-4)Gal(b1-4)Glc
Method in brief: as §1

[17] = biological target: Gal(b1-3)GalNAc(b1-4)Gal(b1-4)Glc
Method in brief: as §1

[18] = biological target: Gal(b1-3)GalNAc(b1-4)[Neu5Ac(a2-3)]Gal(b1-4)Glc
Method in brief: as §1

Gal(b1-3)GlcNAc = biological target: Gal(b1-3)GlcNAc
Method in brief: as §1

[19] = biological target: Gal(b1-3)GlcNAc(a1-6)Gal(b1-4)GlcNAc
Method in brief: as §1

[20] = biological target: Gal(b1-3)GlcNAc(b1-2)Man(a1-3)[Gal(b1-3)GlcNAc(b1-2)Man(a1-6)]Man(b1-4)GlcNAc(b1-4)GlcNAc
Method in brief: as §1

[21] = biological target: Gal(b1-3)GlcNAc(b1-2)Man(a1-3)[Gal(b1-3)GlcNAc(b1-2)Man(a1-6)]Man(b1-4)GlcNAc(b1-4)[Fuc(a1-6)]GlcNAc
Method in brief: as §1

[22] = biological target: Gal(b1-3)GlcNAc(b1-3)Gal(b1-3)GlcNAc
Method in brief: as §1

[23] = biological target: Gal(b1-3)GlcNAc(b1-3)Gal(b1-4)Glc
Method in brief: as §1

[24] = biological target: Gal(b1-3)GlcNAc(b1-3)Gal(b1-4)GlcNAc
Method in brief: as §1

[25] = biological target: Gal(b1-3)GlcNAc(b1-3)Gal(b1-4)GlcNAc(b1-6)[Gal(b1-3)GlcNAc(b1-3)]Gal(b1-4)Glc
Method in brief: as §1

[26] = biological target: Gal(b1-3)GlcNAc(b1-3)Gal(b1-4)[Fuc(a1-3)]GlcNAc(b1-6)[Gal(b1-3)GlcNAc(b1-3)]Gal(b1-4)Glc
Method in brief: as §1

[27] = biological target: Gal(b1-3)GlcNAc(b1-3)GalNAc
Method in brief: as §1

[28] = biological target: Gal(b1-3)GlcNAc(b1-6)Gal(b1-4)GlcNAc
Method in brief: as §1

B1: rAAL (Agrocybe aegerita), Q6WY08 (protein)
chain: MQGVNIYNISAGTSVDLAAPVTTGDIVTFFSSALNLNAGAGNPNNTTLNLFAENGAYLLHIAFRLQENVIIFNSRQPDGPWLVEQAVSDVANQFAGIDGKAMVTVFDHGDKYQVVINEKTVIQYTKQISGLTLSLSYNATEETSIFSTVVEAVTYTGLALEHHHHHH
For B1, the “glycan array binding signal (z-score)” value [1] was -0.127, the “glycan array binding signal (z-score)” value [2] was -0.11 and the “glycan array binding signal (z-score)” value [3] was -0.103. The “glycan array binding signal (z-score)” value (Fuc(a1-4)GlcNAc) was -0.139, the “glycan array binding signal (z-score)” value (Fuc(b1-3)GlcNAc) was -0.12 and the “glycan array binding signal (z-score)” value (Gal(a1-2)Gal) was -0.129. The “glycan array binding signal (z-score)” value (Gal(a1-3)Gal) was -0.124, the “glycan array binding signal (z-score)” value (Gal(a1-3)Gal(b1-3)GlcNAc) was 0.619 and the “glycan array binding signal (z-score)” value [4] was -0.088. The “glycan array binding signal (z-score)” value [5] was -0.111, the “glycan array binding signal (z-score)” value (Gal(a1-3)Gal(b1-4)Glc) was 1.02 and the “glycan array binding signal (z-score)” value (Gal(a1-3)Gal(b1-4)GlcNAc) was -0.051. The “glycan array binding signal (z-score)” value [6] was -0.115, the “glycan array binding signal (z-score)” value [7] was -0.115 and the “glycan array binding signal (z-score)” value [8] was -0.125. The “glycan array binding signal (z-score)” value (Gal(a1-3)GalNAc) was -0.134, the “glycan array binding signal (z-score)” value [9] was -0.131 and the “glycan array binding signal (z-score)” value [10] was -0.118. The “glycan array binding signal (z-score)” value (Gal(a1-4)Gal(b1-4)Glc) was -0.133, the “glycan array binding signal (z-score)” value (Gal(a1-4)Gal(b1-4)GlcNAc) was -0.142 and the “glycan array binding signal (z-score)” value [11] was -0.144. The “glycan array binding signal (z-score)” value [12] was -0.129, the “glycan array binding signal (z-score)” value (Gal(a1-4)GlcNAc) was -0.142 and the “glycan array binding signal (z-score)” value (Gal(a1-6)Glc) was -0.142. For the same binder, the “glycan array binding signal (z-score)” value (Gal(b1-2)Gal) was -0.124, the “glycan array binding signal (z-score)” value (Gal(b1-3)Gal) was -0.141 and the “glycan array binding signal (z-score)” value (Gal(b1-3)Gal(b1-4)GlcNAc) was -0.067. For the same binder, the “glycan array binding signal (z-score)” value [13] was 9.2, the “glycan array binding signal (z-score)” value (Gal(b1-3)GalNAc) was -0.119 and the “glycan array binding signal (z-score)” value [14] was -0.142. The “glycan array binding signal (z-score)” value [15] was -0.113, the “glycan array binding signal (z-score)” value [16] was -0.103 and the “glycan array binding signal (z-score)” value [17] was -0.123. The “glycan array binding signal (z-score)” value [18] was -0.126, the “glycan array binding signal (z-score)” value (Gal(b1-3)GlcNAc) was -0.115 and the “glycan array binding signal (z-score)” value [19] was -0.133. The “glycan array binding signal (z-score)” value [20] was -0.072, the “glycan array binding signal (z-score)” value [21] was -0.109 and the “glycan array binding signal (z-score)” value [22] was -0.052. The “glycan array binding signal (z-score)” value [23] was 0.01, the “glycan array binding signal (z-score)” value [24] was -0.117 and the “glycan array binding signal (z-score)” value [25] was 0.051. The “glycan array binding signal (z-score)” value [26] was -0.052, the “glycan array binding signal (z-score)” value [27] was -0.086 and the “glycan array binding signal (z-score)” value [28] was -0.106.
